# Reference: PubChem BioAssay (NCI)
# Some compounds were tested as several samples or in several runs, with calls that do not always agree.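 In brief: 96-well plates, 48 h treatment, single concentration, percent growth endpoint.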 Certain results were filed several times, with different values. Only these are listed. How the source made its calls: active means growth percent below 10; inactive means the rest. The source may hold further records. These are repeated runs of one drug, at its own concentration, as given; one value stands for one run. Additions like (4×) say how often a value occurs here.
# Experiments:
# [1] = tested on: OVCAR-3 ovarian; test: NCI-60 one-dose screen, 48 h (100 = growth as untreated, 0 = no growth, -100 = all killed)
# [2] = tested on: HS 578T breast; test: as above; details: 0.25 µM
structure (smiles),measurement,setting,value
COc1cccc2c1C(=O)c1c(O)c3c(c(O)c1C2=O)C[C@@](O)(C(=O)CO)C[C@@H]3OC1CC(N)C(O)C(C)O1 (stereo not given in full),growth,"[1]; 0.25 µM, runs of 2020","inactive: 57.8, 59.4, 78.8, 58, 54.1, 67.9, 66.7 (2×), 64.4, 63.9, 61.9, 69.1, 65.1, 65.4, 64.3, 83.2, 66.5, 76.1, 62.8, 63.8, 70.6, 71.7, 81.1%"
same,growth,"[1]; 0.25 µM, runs of 2021","inactive: 77.3 (2×), 74, 71.4, 65.6, 57.6, 64.3, 75, 74.8, 58.2, 62.8, 63.4 (2×), 62.2, 61, 68.6, 65.1, 61.2, 81, 72.1, 66.2, 70.2, 63.1, 63.9, 63.8, 59.7, 49.8, 62.6, 69.9, 70.7, 63%"
same,growth,"[1]; 0.25 µM, runs of 2022","inactive: 24.7, 25.9, 52.2, 53.6, 54.6, 38.6, 54, 60.3, 70, 50.3, 61.4, 74.9, 38.1, 69.4, 54.1, 56.5, 47.3, 85.7, 92.3, 62.1, 94.3, 86.6, 93.3, 65.5, 65.6, 62.3, 74.3% and active: 7.37%"
same,growth,"[1]; 25 µM, runs of 1991","active: 0.251, -14, -16.5, -23.6, 5.38, -25.5, 0.819, -3.54, -8.31, -12.2, 4.16, 3.27, -4.7, -23.1, -10.9, -11.1, -12% and inactive: 27.8%"
same,growth,"[1]; 25 µM, runs of 1992","active: -16.4, -32.6, -32.5, -4.02, 3.93, -2.44, -2.03, -0.142, -5.73, -31.8, -36, -35.9 (2×), -23.1, -28.4, 6.28, -2.75, 3.67, -2.5, -6.14, -16.3, -3.44, -34.7, -24, -27.1, -6.11, -21.7, -17.8, 6.11, -24.4, -6.68, -23.3, 2.42, -19.4, 2.26, -7.75, 2.19, -9.55, 0.661, -14.6, -66.7, -27.9, -5.98, -13.2, -23.2, -17.6, -28.7, -43.2, -18.1 (2×), 2.88, -9.98, -7.99, -26.8 (2×), -18.5, -17.7, -28.1, -22.9, -85.6, -82.2, -87.3, -0.559, 2, -13.4, -46.5, -25.1, -10.5, -43.9, -28.9, -45.3, -36.9, -18.3, -56.7, 1.46, -1.52, 2.13, 0.986, -43.7, -19.2, -12.2, 0.464, -31.3, -40.9, -23, -25.3, -21.2, -21.8, -32.4, 1.31, -11, -7.53, -9.92, -34.9, -28.5, -35.8, -40.5, -33, -46.3, 6.1, -3.14, -12.9, -4.04, -8.75, -22.4, -33.7, 5.82, -15.6, -4.81, -28.8, -5.52, -27, -44.5, 0.547, -3.75, -23.6, -15, -49.1% and inactive: 32.6%"
same,growth,"[1]; 25 µM, runs of 1993","active: -12.6, 6.55, -21.9 (2×), -17.8, -17.7 (2×), -28.5, -31.9, -30.2, 0.9, -2.16, 0.858, 5.9, -20.5, -28.7, -34.8, -8.12, -13.9 (2×), 2.06, -22.4, -25.4, -12.8, -5.41, -36.2, -3.36, -13.4, -27.1, -33.2, -1.03, -14.4, -7.57, -8.44, -14.2, -12.9, -4.44, 4.97, -21.3, -11.2, -14.9, -12.4, -24.7, -8.14% and inactive: 13%, 21.9%"
same,growth,"[1]; 25 µM, runs of 1994","active: -22.9, -26.5, -33.4, -10.1, -18.3 (2×), -0.255, -19.8 (2×), 8.59, 7.14, -8.83, -21.4, -4.85, 2.28, -23, -93.5, 5.26, 5.07, -35, -0.634, -24.2, 0.124, 4.57, -8.93, -21.2, 3.6, -26.8, -31.4, -10.9% and inactive: 11.2%"
same,growth,"[1]; 25 µM, runs of 1995","active: -14.7, 1.3, -11.5, -34.8, -15.2, -35, 8.23 (2×), 8.82, -17.8, -39, 1.54, -13.2, -6.35, 2.02, 4.81, -29.8, -25.1, -12.4, -24, -14.2, -26.4, -5.96, -23.8, -2.99, 9.68, -33.4, -2.17, -27.2, -27.7, -18.4, 4.02, -27.8, -4.01, -22.3% and inactive: 19.4%"
same,growth,"[1]; 25 µM, runs of 1996","active: 0.724, -16.9, 5.05, 7.67, 9.42, 4.16, 7.93, -2.26, 2.18, -8.94, -3.08, -4.34, -19.7, -9.79, -23, -13.4, -6.91, -17.2, -4.02, -12, -38.6, -5.17, -27.8 (2×), -15, -11.6, -11.3, -4.48, -0.761, -14.8, -8.53, -7.4, -19.4, -29.4, -10, -4.29, -0.716, -8.46, -28.5 (2×), -23.9, -14.6, 1.93, -24.4, -9.82, -15.6, -16.2, -12.6, 1.8, 6.05, -21.5, 3.14% and inactive: 45.1, 106, 12.6, 22.5%"
same,growth,"[1]; 25 µM, runs of 1997","active: -6.63, -7.75, -22.6, -8.29, -27.9, -25.7, 6.32, -10.6, -10.2, -14.4, -1.87, -31.3, -32.7, -10.4, -31.5, -10.5, 7.14, -14.6, -1.15, -2.66, -28.8, -21.5, 4.4, -28.3, -0.639, -30.8 (2×), -37.3, -3.69, 1.14, -22.2, -26.3, -41.5, -12.1, -10.3, -32.5, -50.8, -8.58, -15.1, -16, -37, -40.4% and inactive: 18.4%"
same,growth,"[1]; 25 µM, runs of 1998","active: -6.3, -28.4, -11.7, 4.07, -6.36, -30.9, -8.02, -28.9, -9.21, -24.5, -35, -25.4, 9.88, -20.1, 0.0181, -3.18, -21, 7.22, 4.41, -24.3, 1.03% and inactive: 21.7%"
same,growth,"[1]; 25 µM, runs of 1999","active: -38.9, -30.3, -17.6, -9.08, -51.7, 2.53, -81, -5.68, -62.7, -71.7, -40.3, -48.6, -100, -64.2, -66.5% and inactive: 24%, 42.8%, 18.5%"
same,growth,"[1]; 25 µM, runs of 2000","active: 5.01, -100, -74.8, -78.1%"
same,growth,[2]; runs of 2006,active: -16.1% and inactive: 41.3%
same,growth,[2]; runs of 2007,"inactive: 41.5, 65.4, 47.9, 39.8, 31.2, 56.1, 50.7, 60, 55.8, 51.3, 57.5, 189, 59.8, 33.4, 78.9 (2×), 11.2, 35, 51.1, 67.5, 58.4, 63.8, 38.1, 59.2, 24, 66.8, 66.2, 15.9, 77, 58.1 (2×), 56, 37.2, 39, 57.4, 50.2, 49, 70.5, 64.5% and active: 7.36%"
